# In PMC2171497 (The Journal of Cell Biology, 2005):
# B1: τ (tau) from bovine brain (natural protein)
# chain: not shown
# Biological target: preassembled microtubules (MTs) of bovine brain tubulin (bovine, UniProt Q6B856)
# Assay: co-sedimentation
binder,measurement,value
B1,Kd,1.24 ± 0.3 µM
